Source: article PMC7819943, “Rice protein-binding microarrays: a tool to detect cis-acting elements near promoter regions in rice”
The other results are listed elsewhere or left out.

Target: T1, OsWOX13 (Oryza sativa, UniProt Q5QMM3 1-267)
T1 sequence: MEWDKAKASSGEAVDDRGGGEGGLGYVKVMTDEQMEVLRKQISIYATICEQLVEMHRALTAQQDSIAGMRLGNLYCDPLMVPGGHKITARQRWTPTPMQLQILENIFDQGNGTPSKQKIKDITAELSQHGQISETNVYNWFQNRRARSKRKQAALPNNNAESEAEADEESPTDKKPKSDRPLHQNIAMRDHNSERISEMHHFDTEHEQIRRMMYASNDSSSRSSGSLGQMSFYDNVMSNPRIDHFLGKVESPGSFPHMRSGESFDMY
Assay: protein-binding microarray (RPBM); PBS, 2% BSA, 51.3 ng/ul salmon testes DNA, 50 uM zinc acetate, 200 nM TF, 25 C, 1 h; high values mean tight binding
Settings: protein: recombinant; tags: N-terminal polyhistidine and DsRed monomer fusion (pET32a); label: CyDye5-dUTP incorporated in the synthesized complementary strand; 3' TTTTT single-stranded linker to array surface; dsDNA, one strand shown
Summary of the method: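 Binding signal here means per-feature fluorescence intensity in arbitrary units. The values were read on an Axon 4000B scanner after a custom Agilent array, double-stranded by primer extension with Cy5-dUTP, was incubated with 200 nM protein at 25 °C for 1 h in PBS with 2% BSA, salmon testes DNA and 50 µM zinc acetate, then washed. The proteins were transcription factors with an N-terminal polyhistidine tag and DsRed, expressed in E. coli BL21-CodonPlus and purified on Ni–NTA.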

| Sequence | binding signal |
| --- | --- |
| ACAATGTGATTTGCTGCATCTTCTTACATCTGTTAATATTCGGAGTCACCTAGTGCAG | 15200 fluorescence intensity (a.u.) |
| ATTAAATAAGCTGTCATTTAGAATGAAAGATGATGTGGCACGGAGTCACCTAGTGCAG | 4190 fluorescence intensity (a.u.) |
| CCCCAACTGCACAATGATTGGTGCCCCTCCCGCCGCGCTCCGGAGTCACCTAGTGCAG | 40100 fluorescence intensity (a.u.) |
| TTGGCAGATTGACAAGGGACCAGCCATGCCATTGCTCTGACGGAGTCACCTAGTGCAG | 34600 fluorescence intensity (a.u.) |
| TTAATTTATACCAGCTTAATTGCCGATCGAATTCACCACCCGGAGTCACCTAGTGCAG | 33200 fluorescence intensity (a.u.) |
| AGCTTCAATTTATCTATAGGCAATTTAATAGCTCATTAATCGGAGTCACCTAGTGCAG | 5740 fluorescence intensity (a.u.) |
| ATGTTCCTATCAGTTGCTAATTATTAGTGTGACATCAATCCGGAGTCACCTAGTGCAG | 16300 fluorescence intensity (a.u.) |
| CCTAAATTACCCTTTAAAGATTAACTGTGGATAACAATTCCGGAGTCACCTAGTGCAG | 16600 fluorescence intensity (a.u.) |
| AGATCCAATTAGCTTGTTTTGTGTATGGGTATTGATTTGTCGGAGTCACCTAGTGCAG | 5270 fluorescence intensity (a.u.) |
| AAAGTCATTGGCATATAATTAATTTAGTTTTAATTGTTTTCGGAGTCACCTAGTGCAG | 7660 fluorescence intensity (a.u.) |
| AACAATAAATTTATATTATAGTTTTACGATACTTAGTTTTCGGAGTCACCTAGTGCAG | 13300 fluorescence intensity (a.u.) |
| ACAAGAGAAATTGAAACCCCTGATTTCAAGTTTCAACCGGCGGAGTCACCTAGTGCAG | 5000 fluorescence intensity (a.u.) |
| TCCTGAATTAATGGGTAGCTGTAATAGTTGGAAGCCAACGCGGAGTCACCTAGTGCAG | 4440 fluorescence intensity (a.u.) |
| TCCAATGATTAATGATTAATCATTAATGGTTTCAGTACGTCGGAGTCACCTAGTGCAG | 40000 fluorescence intensity (a.u.) |
| GCGCCATGATTTAACGATGTGATGCTACAGTAAACATTTGCGGAGTCACCTAGTGCAG | 6330 fluorescence intensity (a.u.) |
| GTTTCATTAAATATGATAATGATAATGTGTCTATTTTGTACGGAGTCACCTAGTGCAG | 6030 fluorescence intensity (a.u.) |
| CCTAAGTTATTGGGTTGATTAGCAAGGGAGGAGGTTGATGCGGAGTCACCTAGTGCAG | 25600 fluorescence intensity (a.u.) |
| CTCCAAATTAAATACAGTTAAATAAATTTTACTGTTAAGCCGGAGTCACCTAGTGCAG | 19300 fluorescence intensity (a.u.) |
| ACGTAATTTGGGACCACATGTGGGTGAAATCCCGTCTCGGCGGAGTCACCTAGTGCAG | 8640 fluorescence intensity (a.u.) |
| GTGACTGAATTTTAGTACTAGTAGATGAATGGAGTACGTCCGGAGTCACCTAGTGCAG | 6120 fluorescence intensity (a.u.) |
| TTTAAATTTGAACTTGAATTACAACGAGGGGATGGAGGGACGGAGTCACCTAGTGCAG | 6280 fluorescence intensity (a.u.) |

| Sequence | binding signal |
| --- | --- |
| AATTTCAATTAAACTTGATTGATGACCTATTTTGTTCGAACGGAGTCACCTAGTGCAG | 35200 fluorescence intensity (a.u.) |
| TATATAATTACTACTAGTCGCCTCCGAAAGCTACCTCTGCCGGAGTCACCTAGTGCAG | 11500 fluorescence intensity (a.u.) |
| ATGATTTGACAATATGGTGCTATAGTAAACATTTGGTAATCGGAGTCACCTAGTGCAG | 41400 fluorescence intensity (a.u.) |
| GGAATCTCCAATTAGTACACCGCCCCTGATCCCCTCTATGCGGAGTCACCTAGTGCAG | 4000 fluorescence intensity (a.u.) |
| TCGTTAGTGGTTACGACTGATTGAGATGTGTGCTCAGACACGGAGTCACCTAGTGCAG | 8580 fluorescence intensity (a.u.) |
| CTATGACTTAATTGATGCAAGAACTGAAAATACAGTTAGACGGAGTCACCTAGTGCAG | 11300 fluorescence intensity (a.u.) |
| AATTTACACTTAATTTGCTATTTGCTATACATGTTTTCTACGGAGTCACCTAGTGCAG | 10800 fluorescence intensity (a.u.) |
| GTTAGTAATGTTGATTAGTGCATGGCTTATTTGGTTGCACCGGAGTCACCTAGTGCAG | 15600 fluorescence intensity (a.u.) |
| CCCAGAAACTTAATTTCCCCACTCTAGTTCTACTCAACATCGGAGTCACCTAGTGCAG | 3680 fluorescence intensity (a.u.) |
| ATAACTGATAGGAAGACAAAACAGTCCAATTTCTAAAACTCGGAGTCACCTAGTGCAG | 15600 fluorescence intensity (a.u.) |
| TGTGATAATTTAGTTACCAAACATACAGTTTTGTGACAATCGGAGTCACCTAGTGCAG | 8060 fluorescence intensity (a.u.) |
| TCTTAAGATTTTAATTAAATTAAATTTGGCCTAACCTATTCGGAGTCACCTAGTGCAG | 19700 fluorescence intensity (a.u.) |
| GACAGATTAATTAAAGAATCATCATTACTGCGATGCGACCCGGAGTCACCTAGTGCAG | 16600 fluorescence intensity (a.u.) |
| GTAATGAATTGATGGATGATGTGTCTGATTATTGGCACTGCGGAGTCACCTAGTGCAG | 47600 fluorescence intensity (a.u.) |
| AAGATAATGATGTAGACACGCAATCTGCGCGGGCCCACCACGGAGTCACCTAGTGCAG | 6040 fluorescence intensity (a.u.) |
| GGTAATGATTTAACACCACCTAATTTATTTTGAACAAGCTCGGAGTCACCTAGTGCAG | 20500 fluorescence intensity (a.u.) |
| CTATGATTGGCAAATTTCCTCATGACATTAGAGACTAATACGGAGTCACCTAGTGCAG | 45700 fluorescence intensity (a.u.) |
| GCGTCACGCAGACTTTGATGATTGATGCATCATGCATCACCGGAGTCACCTAGTGCAG | 16300 fluorescence intensity (a.u.) |
| AACGTTTTAATTAAGCTTTCGGTTTTGTCCACTACCCCACCGGAGTCACCTAGTGCAG | 5150 fluorescence intensity (a.u.) |
| CCTTAATCACACCATTGTAATGATGGCAACGACAAGGCCACGGAGTCACCTAGTGCAG | 15400 fluorescence intensity (a.u.) |
| CATAATAGATTTATGTGTAATATATCACTTCATAAACATGCGGAGTCACCTAGTGCAG | 36600 fluorescence intensity (a.u.) |
